Results reported in the supplement of paper PMC4604168 (melanoma cell lines).
Some of the results follow. Most values come without repeats; read them as rough.

Assays:
Experiment in all cases: cell count relative to DMSO control; melanoma cells; higher = more viable cells
Settings in all cases: library dose: standard library concentration; 72 h
SkMel28 = system: SkMel28
SkMel2 = system: SkMel2
SkMel30 = system: SkMel30
SkMel5 = system: SkMel5
UACC257 = system: UACC257
UACC62 = system: UACC62
WM115 = system: WM115
WM1716 = system: WM1716
WM1745 = system: WM1745
WM3526 = system: WM3526
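Also: cells treated in 1,536-well plates, then fixed and DAPI-stained, with nuclei counted from automated high-throughput microscope images.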

SMILES	cell count (SkMel28) [%]	cell count (SkMel2) [%]	cell count (SkMel30) [%]	cell count (SkMel5) [%]	cell count (UACC257) [%]	cell count (UACC62) [%]	cell count (WM115) [%]	cell count (WM1716) [%]	cell count (WM1745) [%]	cell count (WM3526) [%]
CC1(C)CCC(c2ccc(Cl)cc2)=C(CN2CCN(c3ccc(C(=O)NS(=O)(=O)c4ccc(N[C@H](CCN5CCOCC5)CSc5ccccc5)c(S(=O)(=O)C(F)(F)F)c4)cc3)CC2)C1 + COc1ccc(Cl)c(Nc2nc3ccccc3nc2NS(=O)(=O)c2cccc(NC(=O)C(C)(C)N)c2)c1 [XL147] (first compound 2 µM, partner dose 4 µM)	64.2	90.9	63.8	87.5	38.7	61.7	86.2	52.6	4.45	75.9
O=C(/C=C/c1cccnc1)NCCCCC1CCN(C(=O)c2ccccc2)CC1 + C[C@]1(O)C[C@@H](c2nc(-c3ccc4ccc(-c5ccccc5)nc4c3)c3c(N)nccn32)C1 [OSI906] (first compound 0.05 µM, partner dose 2 µM)	75	15.5	82.5	69.2	114	83.8	108	93	81.9	88.2
CC1(C)CCC(c2ccc(Cl)cc2)=C(CN2CCN(c3ccc(C(=O)NS(=O)(=O)c4ccc(N[C@H](CCN5CCOCC5)CSc5ccccc5)c(S(=O)(=O)C(F)(F)F)c4)cc3)CC2)C1 + CCCS(=O)(=O)Nc1ccc(F)c(C(=O)c2c[nH]c3ncc(Cl)cc23)c1F [PLX4720] (first compound 2 µM, partner dose 0.4 µM)	44.7	87.3	55.4	53.9	37	67.1	74.1	65.8	4.5	36.4
CC1(C)CCC(c2ccc(Cl)cc2)=C(CN2CCN(c3ccc(C(=O)NS(=O)(=O)c4ccc(N[C@H](CCN5CCOCC5)CSc5ccccc5)c(S(=O)(=O)C(F)(F)F)c4)cc3)CC2)C1 + Cn1sc(=O)n(Cc2ccccc2)c1=O [TDZD-8] (first compound 2 µM, partner dose 2 µM)	55.3	87.5	70.5	81.1	38	63.8	73.9	60.8	5.48	81.8
O=C(/C=C/c1cccnc1)NCCCCC1CCN(C(=O)c2ccccc2)CC1 + COCC[n+]1c2c(n(Cc3cnccn3)c1C)C(=O)c1ccccc1C2=O [YM155] (first compound 0.05 µM, partner dose 0.002 µM)	47	12.1	60.6	40.5	27.1	47.2	78.9	70	82.8	43.9
O=C(/C=C/c1cccnc1)NCCCCC1CCN(C(=O)c2ccccc2)CC1 + Cn1cnc2c(F)c(Nc3ccc(Br)cc3Cl)c(C(=O)NOCCO)cc21 [selumetinib] (first compound 0.05 µM, partner dose 0.075 µM)	53.9	23.1	41.7	87.7	87.8	67.6	66	69.4	75.3	48.4
Cc1ccc(Nc2nccc(N(C)c3ccc4c(C)n(C)nc4c3)n2)cc1S(N)(=O)=O [Pazopanib] + CCCS(=O)(=O)Nc1ccc(F)c(C(=O)c2c[nH]c3ncc(Cl)cc23)c1F [PLX4720] (first compound 2 µM, partner dose 0.4 µM)	60.4	140	79.7	94	115	63.7	81.5	73	61.4	73.2
O=C(/C=C/c1cccnc1)NCCCCC1CCN(C(=O)c2ccccc2)CC1 + CN(C)S(=O)(=O)c1ccc2c(c1)/C(=C/c1cc3c([nH]1)CCCC3)C(=O)N2 [SU6656] (first compound 0.05 µM, partner dose 2 µM)	73.6	34.1	105	93.4	79	56.9	59.6	76.8	77.7	108
CC1(C)CCC(c2ccc(Cl)cc2)=C(CN2CCN(c3ccc(C(=O)NS(=O)(=O)c4ccc(N[C@H](CCN5CCOCC5)CSc5ccccc5)c(S(=O)(=O)C(F)(F)F)c4)cc3)CC2)C1 + CC(C)(C)c1cnc(CSc2cnc(NC(=O)C3CCNCC3)s2)o1 [SNS-032] (first compound 2 µM, partner dose 0.05 µM)	63.9	47.1	67.5	61.1	45	59.9	69.9	51.5	5.1	84.8
O=C(/C=C/c1cccnc1)NCCCCC1CCN(C(=O)c2ccccc2)CC1 + CC(=O)c1c(C)c2cnc(Nc3ccc(N4CCNCC4)cn3)nc2n(C2CCCC2)c1=O [palbociclib] (first compound 0.05 µM, partner dose 0.2 µM)	30.1	27.7	69.7	50.3	66.8	53.5	45.6	35.8	64.2	45.5
CC1(C)CCC(c2ccc(Cl)cc2)=C(CN2CCN(c3ccc(C(=O)NS(=O)(=O)c4ccc(N[C@H](CCN5CCOCC5)CSc5ccccc5)c(S(=O)(=O)C(F)(F)F)c4)cc3)CC2)C1 + CN1CCN(c2ccc3nc(-c4c(N)c5c(F)cccc5[nH]c4=O)[nH]c3c2)CC1 [Dovitinib] (first compound 2 µM, partner dose 0.5 µM)	24.1	42.6	38.5	45.4	42	36.7	22.2	44.6	13.5	60.5
Cc1ccc(Nc2nccc(N(C)c3ccc4c(C)n(C)nc4c3)n2)cc1S(N)(=O)=O [Pazopanib] + Cn1cncc1[C@@](N)(c1ccc(Cl)cc1)c1ccc2c(c1)c(-c1cccc(Cl)c1)cc(=O)n2C [tipifarnib] (first compound 2 µM, partner dose 0.05 µM)	45	83	91	48.6	85.7	61.5	60.4	60.8	121	63.1
CC1(C)CCC(c2ccc(Cl)cc2)=C(CN2CCN(c3ccc(C(=O)NS(=O)(=O)c4ccc(N[C@H](CCN5CCOCC5)CSc5ccccc5)c(S(=O)(=O)C(F)(F)F)c4)cc3)CC2)C1 + Cn1c(Nc2ccc(C(F)(F)F)cc2)nc2cc(Oc3ccnc(-c4ncc(C(F)(F)F)[nH]4)c3)ccc21 [CHIR265] (first compound 2 µM, partner dose 0.4 µM)	4.37	17.9	34.6	27	26.6	39.9	10.6	37.7	8.12	16.3
Cc1ccc(Nc2nccc(N(C)c3ccc4c(C)n(C)nc4c3)n2)cc1S(N)(=O)=O [Pazopanib] + CC(C)C[C@H](NC(=O)[C@H](Cc1ccccc1)NC(=O)c1cnccn1)B(O)O [Bortezomib] (first compound 2 µM, partner dose 0.005 µM)	20.6	34	35.5	24.8	95	39.1	19.7	11.5	17.6	23.6
Cc1ccc(Nc2nccc(N(C)c3ccc4c(C)n(C)nc4c3)n2)cc1S(N)(=O)=O [Pazopanib] + NC1(c2ccc(-c3nc4ccn5c(=O)[nH]nc5c4cc3-c3ccccc3)cc2)CCC1 [MK2206] (first compound 2 µM, partner dose 2 µM)	62.8	94.4	81.9	70.3	90.9	74.9	89.3	99.6	76.3	83.8
Cc1ccc(Nc2nccc(N(C)c3ccc4c(C)n(C)nc4c3)n2)cc1S(N)(=O)=O [Pazopanib] + Cc1cc(Nc2cc(N3CCN(C)CC3)nc(/C=C/c3ccccc3)n2)n[nH]1 [ENMD2076] (first compound 2 µM, partner dose 0.2 µM)	70.2	78	76.1	68.7	75.1	53.6	63.6	63.1	67	68.6
Cc1ccc(Nc2nccc(N(C)c3ccc4c(C)n(C)nc4c3)n2)cc1S(N)(=O)=O [Pazopanib] + CC(=O)O[C@@]12CO[C@@H]1C[C@H](O)[C@@]1(C)C(=O)[C@H](O)C3=C(C)[C@@H](OC(=O)[C@H](O)[C@@H](NC(=O)OC(C)(C)C)c4ccccc4)C[C@@](O)([C@@H](OC(=O)c4ccccc4)[C@H]21)C3(C)C [Docetaxel] (first compound 2 µM, partner dose 0.0005 µM)	16.6	26.7	44	35.3	58.8	57.1	34.4	30.9	28.4	37.8
O=C(/C=C/c1cccnc1)NCCCCC1CCN(C(=O)c2ccccc2)CC1 + O=C(O)c1ccc(-c2c[nH]c3ncc(-c4ccccc4)cc23)cc1C1CCCC1 [GSK650394] (first compound 0.05 µM, partner dose 0.8 µM)	62.6	21	96.2	107	88.5	85.8	78.7	88.6	109	92
Cc1ccc(Nc2nccc(N(C)c3ccc4c(C)n(C)nc4c3)n2)cc1S(N)(=O)=O [Pazopanib] + OCCn1cc(-c2cnc3nnn(Cc4ccc5ncccc5c4)c3n2)cn1 [PF04217903] (first compound 2 µM, partner dose 5 µM)	102	82.3	98.4	78.7	89.1	84.2	90.6	90.3	98.5	83.2
CC1(C)CCC(c2ccc(Cl)cc2)=C(CN2CCN(c3ccc(C(=O)NS(=O)(=O)c4ccc(N[C@H](CCN5CCOCC5)CSc5ccccc5)c(S(=O)(=O)C(F)(F)F)c4)cc3)CC2)C1 + COc1cc(Nc2ncc(F)c(Nc3ccc4c(n3)NC(=O)C(C)(C)O4)n2)cc(OC)c1OC [Tamatinib] (first compound 2 µM, partner dose 2 µM)	60	67.1	76.8	58.4	31.6	60.9	73.1	76.1	7.41	65
Cc1ccc(Nc2nccc(N(C)c3ccc4c(C)n(C)nc4c3)n2)cc1S(N)(=O)=O [Pazopanib] + CN(NC(=O)CC(=O)NN(C)C(=S)c1ccccc1)C(=S)c1ccccc1 [STA4783] (first compound 2 µM, partner dose 0.03 µM)	37	78.1	92.2	65.9	90	67.5	26.5	64.2	48.3	90.9
